# Source: the supplement of paper PMC4604168 (melanoma cell lines)
# The list shows a part of the results. Most values come without repeats; read them as rough.
# Columns and labels:
# Assay in all cases: cell count relative to DMSO control; melanoma cells; higher = more viable cells
# Conditions in all cases: library dose: standard library concentration; 72 h; first compound 2 µM
# G361 = test system: G361
# IPC-298 = test system: IPC-298
# IST-MEL1 = test system: IST-MEL1
# LB2518-MEL = test system: LB2518-MEL
# LOXIMVI = test system: LOXIMVI
# MEL-HO = test system: MEL-HO
# MZ2-MEL = test system: MZ2-MEL
# MeWo = test system: MeWo
# RPMI7951 = test system: RPMI7951
# RVH-421 = test system: RVH-421
# SkMel28 = test system: SkMel28
# SkMel2 = test system: SkMel2
# SkMel30 = test system: SkMel30
# SkMel5 = test system: SkMel5
# UACC257 = test system: UACC257
# UACC62 = test system: UACC62
# WM115 = test system: WM115
# WM1716 = test system: WM1716
# WM1745 = test system: WM1745
# WM3526 = test system: WM3526
# 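Further: cells treated in 1,536-well plates, then fixed and DAPI-stained, with nuclei counted from automated high-throughput microscope images.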
SMILES,cell count (G361),cell count (IPC-298),cell count (IST-MEL1),cell count (LB2518-MEL),cell count (LOXIMVI),cell count (MEL-HO),cell count (MZ2-MEL),cell count (MeWo),cell count (RPMI7951),cell count (RVH-421),cell count (SkMel28),cell count (SkMel2),cell count (SkMel30),cell count (SkMel5),cell count (UACC257),cell count (UACC62),cell count (WM115),cell count (WM1716),cell count (WM1745),cell count (WM3526)
Cn1sc(=O)n(Cc2ccccc2)c1=O + Clc1ccc(Nc2nnc(Cc3ccncc3)c3ccccc23)cc1 [vatalanib] (partner dose 10 µM),81.9%,81.2%,78.5%,103%,57.5%,64%,84%,80.9%,66.4%,95%,48.3%,82.2%,79.5%,49.6%,69.8%,72.8%,75.1%,89.1%,91.4%,65.8%
C[C@@H](N)c1ccc(C(=O)Nc2ccnc3[nH]ccc23)cc1 + C[C@@H]1CCN(C(=O)CC#N)C[C@@H]1N(C)c1ncnc2[nH]ccc12 [CP690550] (partner dose 5 µM),88.5%,114%,92.2%,132%,93.7%,79.1%,73%,76.6%,48.5%,44.2%,88.7%,107%,104%,78.4%,68.4%,106%,91%,63.3%,52.4%,97.5%
CCCCCCCCCCCCCCCCCCOP(=O)([O-])OC1CC[N+](C)(C)CC1 [Perifosine] + CC1(C)CCC(c2ccc(Cl)cc2)=C(CN2CCN(c3ccc(C(=O)NS(=O)(=O)c4ccc(N[C@H](CCN5CCOCC5)CSc5ccccc5)c(S(=O)(=O)C(F)(F)F)c4)cc3)CC2)C1 [ABT263] (partner dose 2 µM),55.2%,84.1%,49.2%,53%,54.8%,67.6%,92.9%,87.5%,8.34%,50.6%,27.4%,49.7%,52.7%,74.3%,36.5%,67.8%,77.1%,63.4%,3.7%,86.5%
C[C@@H](N)c1ccc(C(=O)Nc2ccnc3[nH]ccc23)cc1 + Nc1ncn([C@H]2C[C@H](O)[C@@H](CO)O2)c(=O)n1 [decitabine] (partner dose 0.5 µM),74.2%,61.9%,55.5%,76.3%,85.7%,56%,43.5%,57.2%,51.9%,57.4%,71.6%,80.6%,77.9%,32.4%,84.6%,48.1%,63%,51.2%,37.6%,95.5%
Cn1sc(=O)n(Cc2ccccc2)c1=O + C#Cc1cccc(Nc2ncnc3cc(OCCOC)c(OCCOC)cc23)c1 [erlotinib] (partner dose 4 µM),80.6%,63.7%,81.4%,60.1%,99.6%,75.4%,76.1%,70.9%,76.1%,84.4%,79.6%,71.7%,63.1%,59.2%,104%,64.3%,77.3%,93.8%,58%,75.2%
Cn1sc(=O)n(Cc2ccccc2)c1=O + COc1cc(N2CCC(N3CCN(C)CC3)CC2)ccc1Nc1ncc(Cl)c(Nc2ccccc2S(=O)(=O)C(C)C)n1 [NVP-TAE684] (partner dose 0.4 µM),82.7%,90.9%,114%,99.8%,107%,78.1%,109%,74.5%,93.3%,83.5%,95.1%,83.7%,101%,81.4%,96.1%,65.7%,102%,101%,,92.1%
Cn1sc(=O)n(Cc2ccccc2)c1=O + O=C1NC(=O)/C(=C/c2ccc(-c3ccc(F)cc3O)o2)S1 [AS252424] (partner dose 5 µM),80.1%,90.6%,90.1%,87.2%,93.6%,63.7%,98.3%,82.7%,85.8%,96.5%,76%,84.4%,82.1%,65.5%,101%,75.6%,81.2%,93.9%,,77.4%
CCCCCCCCCCCCCCCCCCOP(=O)([O-])OC1CC[N+](C)(C)CC1 [Perifosine] + N#Cc1c(O)c2c(-c3ccc(-c4ccccc4O)cc3)csc2[nH]c1=O [A769662] (partner dose 10 µM),109%,97.2%,79.6%,88.9%,111%,90.9%,104%,86.2%,47.6%,90.9%,93.9%,89.9%,96.7%,106%,111%,77.5%,108%,89.5%,,77.9%
